Results from the supplement of paper PMC12578646, “Prodrug florfenicol amine is activated by intrinsic resistance to target Mycobacterium abscessus” (Nature Microbiology, 2025).
M. abscessus ATCC 19977 and its deletion, point and complemented mutants after 5 days of drug at 37 °C plus 24 h of resazurin. Growth in % of untreated wells at the dose given (lower = more inhibition); checkerboards give % inhibition (higher = more inhibition); IC50 from the fitted curve (lower = more potent). No active / inactive call. IC50 values come from the same 384-well curves. Growth is not capped and can exceed 100%. The direction of the checkerboard scale is read from the raw signals. Capreomycin is a mixture.

Legend:
Test in all cases: growth relative to untreated wells; higher = more growth (less inhibition)
[1] = tested on: Mycobacterium abscessus ATCC 19977 Eis2 E120fs
Experimental: (§1)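 384-well two-fold dose series, two replicates; 5 days at 37 °C, then 24 h with resazurin; fluorescence scaled to growth and killed controls.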

[2] = tested on: Mycobacterium abscessus ATCC 19977 Eis2 T258R
Experimental: as §1

[3] = tested on: Mycobacterium abscessus ATCC 19977 Eis2 Y227D
Experimental: as §1

[4] = tested on: Mycobacterium abscessus ATCC 19977 Eis2 Y255*
Experimental: as §1

[5] = tested on: Mycobacterium abscessus ATCC 19977 Eis2 Y284*
Experimental: as §1

[6] = tested on: Mycobacterium abscessus ATCC 19977 WhiB7 F24fs
Experimental: as §1

[7] = tested on: Mycobacterium abscessus ATCC 19977 WhiB7 L37P
Experimental: as §1

[8] = tested on: Mycobacterium abscessus ATCC 19977 WhiB7 R76del
Experimental: as §1

[9] = tested on: Mycobacterium abscessus ATCC 19977 WhiB7 T70fs
Experimental: as §1

[10] = tested on: Mycobacterium abscessus ATCC 19977 Δeis2
Experimental: as §1

[11] = tested on: Mycobacterium abscessus ATCC 19977 ΔwhiB7
Experimental: as §1

[12] = tested on: Mycobacterium abscessus ATCC 19977
Experimental: as §1

CC[C@H]1OC(=O)[C@H](C)[C@@H](O[C@H]2C[C@@](C)(OC)[C@@H](O)[C@H](C)O2)[C@H](C)[C@@H](O[C@@H]2O[C@H](C)C[C@H](N(C)C)[C@H]2O)[C@](C)(O)C[C@@H](C)CN(C)[C@H](C)[C@@H](O)[C@]1(C)O [azithromycin]
Details	growth [%]
[1], 0.03125 µg/mL	98.8
[1], 0.0625 µg/mL	108.69
[1], 0.125 µg/mL	119
[1], 0.25 µg/mL	123
[1], 0.5 µg/mL	113
[1], 1 µg/mL	45.6
[1], 2 µg/mL	6.85
[1], 4 µg/mL	2.63
[1], 8 µg/mL	-0.777
[1], 16 µg/mL	-1.31
[1], 32 µg/mL	-0.923
[1], 64 µg/mL	-1.57
[2], 0.03125 µg/mL	100
[2], 0.0625 µg/mL	108
[2], 0.125 µg/mL	115
[2], 0.25 µg/mL	107
[2], 0.5 µg/mL	63
[2], 1 µg/mL	8.899
[2], 2 µg/mL	2.74
[2], 4 µg/mL	-1.93
[2], 8 µg/mL	-1.3
[2], 16 µg/mL	-2.8
[2], 32 µg/mL	-2.24
[2], 64 µg/mL	-1.87
[3], 0.03125 µg/mL	105
[3], 0.0625 µg/mL	113
[3], 0.125 µg/mL	123
[3], 0.25 µg/mL	123
[3], 0.5 µg/mL	90.5
[3], 1 µg/mL	36.2
[3], 2 µg/mL	6.73
[3], 4 µg/mL	2.84
[3], 8 µg/mL	0.809
[3], 16 µg/mL	-0.0637
[3], 32 µg/mL	-0.113
[3], 64 µg/mL	-0.626
[4], 0.03125 µg/mL	94.4
[4], 0.0625 µg/mL	106
[4], 0.125 µg/mL	121
[4], 0.25 µg/mL	122
[4], 0.5 µg/mL	82.3
[4], 1 µg/mL	24.3
[4], 2 µg/mL	4.28
[4], 4 µg/mL	-1.52
[4], 8 µg/mL	-3.07
[4], 16 µg/mL	-2.94
[4], 32 µg/mL	-3.08
[4], 64 µg/mL	-3.33
[5], 0.03125 µg/mL	97.7
[5], 0.0625 µg/mL	108
[5], 0.125 µg/mL	117
[5], 0.25 µg/mL	120
[5], 0.5 µg/mL	87.9
[5], 1 µg/mL	36.3
[5], 2 µg/mL	6.06
[5], 4 µg/mL	0.971
[5], 8 µg/mL	0.032
[5], 16 µg/mL	-0.938
[5], 32 µg/mL	-1.56
[5], 64 µg/mL	-1.92
[6], 0.03125 µg/mL	98.2
[6], 0.0625 µg/mL	104
[6], 0.125 µg/mL	113
[6], 0.25 µg/mL	98.7
[6], 0.5 µg/mL	38
[6], 1 µg/mL	0.916
[6], 2 µg/mL	-2.55
[6], 4 µg/mL	-3.22
[6], 8 µg/mL	-2.83
[6], 16 µg/mL	-2.55
[6], 32 µg/mL	-2.14
[6], 64 µg/mL	-1.29
[7], 0.03125 µg/mL	98.828
[7], 0.0625 µg/mL	108.1
[7], 0.125 µg/mL	115
[7], 0.25 µg/mL	111.8
[7], 0.5 µg/mL	51.3
[7], 1 µg/mL	3.5
[7], 2 µg/mL	-1.32
[7], 4 µg/mL	-3.09
[7], 8 µg/mL	-3.17
[7], 16 µg/mL	-2.68
[7], 32 µg/mL	-1.891
[7], 64 µg/mL	-1.51
[8], 0.03125 µg/mL	92
[8], 0.0625 µg/mL	104
[8], 0.125 µg/mL	112.3
[8], 0.25 µg/mL	105
[8], 0.5 µg/mL	43.6
[8], 1 µg/mL	0.889
[8], 2 µg/mL	-1.93
[8], 4 µg/mL	-3
[8], 8 µg/mL	-2.25
[8], 16 µg/mL	-2.73
[8], 32 µg/mL	-2.08
[8], 64 µg/mL	-1.64
[9], 0.03125 µg/mL	93.5
[9], 0.0625 µg/mL	105
[9], 0.125 µg/mL	113
[9], 0.25 µg/mL	81.3
[9], 0.5 µg/mL	17.4
[9], 1 µg/mL	-1.66
[9], 2 µg/mL	-3.87
[9], 4 µg/mL	-0.401
[9], 8 µg/mL	-5.26
[9], 16 µg/mL	-4.41
[9], 32 µg/mL	-3.94
[9], 64 µg/mL	-1.06
[10], 0.03125 µg/mL	98.3
[10], 0.0625 µg/mL	105
[10], 0.125 µg/mL	116
[10], 0.25 µg/mL	110
[10], 0.5 µg/mL	77.2
[10], 1 µg/mL	12.5
[10], 2 µg/mL	3.69
[10], 4 µg/mL	-2.83
[10], 8 µg/mL	-2.96
[10], 16 µg/mL	-1.94
[10], 32 µg/mL	-3.06
[10], 64 µg/mL	-2.31
[11], 0.03125 µg/mL	93.9
[11], 0.0625 µg/mL	114
[11], 0.125 µg/mL	122.32
[11], 0.25 µg/mL	107
[11], 0.5 µg/mL	41.9
[11], 1 µg/mL	5.29
[11], 2 µg/mL	-2.85
[11], 4 µg/mL	-5.14
[11], 8 µg/mL	-5.35
[11], 16 µg/mL	-4.77
[11], 32 µg/mL	-4.48
[11], 64 µg/mL	-4.07
[12], 0.03125 µg/mL	101
[12], 0.0625 µg/mL	110
[12], 0.125 µg/mL	121
[12], 0.25 µg/mL	97
[12], 0.5 µg/mL	37.4
[12], 1 µg/mL	7.92
[12], 2 µg/mL	1.8
[12], 4 µg/mL	-0.0144
[12], 8 µg/mL	-1.68
[12], 16 µg/mL	-1.59
[12], 32 µg/mL	-2
[12], 64 µg/mL	4.26
